# Results taken from PubChem BioAssay AID1645882 (National Center for Advancing Translational Sciences (NCATS), 2021).
# Hit rate of the full screen: of about 16,000 compounds, about 120 (0.75%) were called active. Not shown: some 4% with an inconclusive outcome. Calls come from the whole dose curve; as a rule, active = well fitted inhibition curve with a large enough effect; inconclusive = small, poorly fitted or top-dose-only effect; inactive = no such curve, though single readings can be large or run the other way. The list shows a part of the results. Where a SMILES comes first, the peptide text is derived from it. The star is where a group is joined. Cbz = O=C(OCc1ccccc1)*
# Molecular target: Rap guanine nucleotide exchange factor 3 (Homo sapiens) (UniProt O95398)
# Chain of UniProt O95398 (O95398 whole entry, looked up): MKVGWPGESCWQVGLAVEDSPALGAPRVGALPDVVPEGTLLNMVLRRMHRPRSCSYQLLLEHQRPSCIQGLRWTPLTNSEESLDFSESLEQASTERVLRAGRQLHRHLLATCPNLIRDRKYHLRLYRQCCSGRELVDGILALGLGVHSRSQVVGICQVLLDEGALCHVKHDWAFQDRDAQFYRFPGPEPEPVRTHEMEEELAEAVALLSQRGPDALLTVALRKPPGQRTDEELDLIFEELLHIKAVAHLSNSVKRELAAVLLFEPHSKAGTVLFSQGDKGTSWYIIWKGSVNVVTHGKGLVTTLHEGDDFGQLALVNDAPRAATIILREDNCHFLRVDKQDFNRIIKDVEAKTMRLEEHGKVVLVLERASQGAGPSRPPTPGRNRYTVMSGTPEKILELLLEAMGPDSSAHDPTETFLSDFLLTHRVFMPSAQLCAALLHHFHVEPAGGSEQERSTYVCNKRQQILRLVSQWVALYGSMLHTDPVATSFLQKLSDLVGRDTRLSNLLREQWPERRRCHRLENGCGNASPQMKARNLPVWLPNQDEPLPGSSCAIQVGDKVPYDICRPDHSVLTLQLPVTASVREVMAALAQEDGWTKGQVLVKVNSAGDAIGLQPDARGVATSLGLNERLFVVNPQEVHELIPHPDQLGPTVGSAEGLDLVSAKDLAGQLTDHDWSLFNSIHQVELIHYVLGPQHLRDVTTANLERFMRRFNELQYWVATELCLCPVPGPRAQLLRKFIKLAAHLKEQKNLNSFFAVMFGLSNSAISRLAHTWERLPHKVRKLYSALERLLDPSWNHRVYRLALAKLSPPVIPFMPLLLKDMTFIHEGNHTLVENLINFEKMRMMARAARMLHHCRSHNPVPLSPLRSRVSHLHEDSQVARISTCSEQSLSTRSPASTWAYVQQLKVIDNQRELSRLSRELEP
# Assay: Validation qHTS for antagonist of cAMP-regulated guanine nucleotide exchange factor 3 (EPAC1); note: nearly all actives have a fitted effect of over 75% in size
# Details: EPAC1 Rap1B-BODIPY-GDP exchange, fluorescence; series mostly up to 150 µM; activity change, negative = inhibition: at the top concentration
# Procedure, shortened: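 EPAC1 (100 nM) mixed with 250 nM RAP1B-BODIPY-GDP and 50 uM GDP; compounds in concentration series, 5 min at room temperature. Fluorescence (ex 480/em 540 nm) read every 5 min for 30 min; normalized to ATA control and DMSO.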
row,SMILES,"activity change, negative = inhibition"
1,O=C(Oc1ccccc1)N1CCC2(CCCN(c3ccc(-c4ccccc4)cc3)C2)CC1,inactive: 2.81%
2,CCC1CN(CCNC(=O)c2ccc3c(c2)OCO3)Cc2cc(OC)ccc2O1 (centres undefined),inactive: -7.49%
3,Nc1cnccn1,inactive: 15.9%
4,O=C1CCN(Cc2ccccc2)S(=O)(=O)c2ccc(F)cc21,inactive: 10.1%
5,CC[N+]1(C)C2CCC1CC(OC(=O)[C@H]1CCC(C(=O)OC3CC4CCC(C3)[N+]4(C)CC)(c3ccccc3)c3ccccc31)C2 (some centres undefined),inactive: 14.3%
6,Cc1cc2c(c(-c3ccc(Cl)cc3)c1)OC(CNC(=O)CCC(=O)N(C)C)C2 (centres undefined),inactive: -7.43%
7,COc1ccc(NC(=O)/C=C/c2ccc(Cl)cc2)cc1,inactive: -5.73% [at 75.8 µM]
8,CCCCCCCCCCCCCCCC(=O)OC[C@@H](COP(=O)([O-])OCC[N+](C)(C)C)OC(=O)CCCCCCCCCCCCCCC,inactive: 20.1%
9,CNC(=O)c1cc2c(cn1)[nH]c1ccccc12,inactive
10,Cc1cc(=O)oc2cc(O)ccc12,inactive: 12.9% [at 75.8 µM]
11,COC(=O)C1CCCCN1Cc1ccc2c(c1)CN(C(=O)c1ccc(F)cc1)CCO2 (centres undefined),inactive: 17.7%
12,COc1ncc2nc(C)c(=O)n(C3CC3)c2n1,inactive: 1.4%
13,CCC1CN(CCNC(=O)c2cccc(C)n2)Cc2cc(OC)ccc2O1 (centres undefined),inactive: 8.12%
14,Cn1cc(-c2nc3cncnc3n(-c3ccccc3)c2=O)c2ccccc21,inactive: 23%
15,CCC(COC)NC(=O)c1cnn(-c2ncc3c(n2)-c2ccccc2CCC3)c1C (centres undefined),inactive: 2.87%
16,Cc1nc2ccccc2n1Cc1ccc(Cl)cc1,inactive: 13.2%
17,COc1ccccc1-c1ccc2ncnc(Nc3ccccc3)c2c1,inactive: -13.3%
18,CN(C)c1ccc(-c2cncnc2N(C)Cc2ccco2)cc1,inactive: -4.56%
19,Cc1cn2c(=O)c3ccccc3nc2n2c(=O)c3ccccc3nc12,inactive: 11.9%
20,Cc1cc(CNC(=O)c2cnn(-c3nccc(-c4cc(C)sc4C)n3)c2C2CC2)on1,inactive: 7.13%
21,CSc1nc(NC2CCCC2)c([N+](=O)[O-])c(NC2CCCC2)n1,inactive: -2.9%
22,O=C(O)c1cccs1,inactive: 19.9%
23,CC(=O)C[C@H]1c2cc(C(F)(F)F)ccc2S(=O)(=O)N1C1CCCC1,inactive: 9.95%
24,CCc1nc2cc(C(=O)NC3CCOC(C)(C)C3)cc(NC(=O)c3ccccc3OC)c2n1C (centres undefined),inactive: 14.3%
25,CC(=O)N1CCC2(CC1)CN(c1cccc(-c3ccccc3)c1)C2,inactive: 4.97%

row,SMILES,"activity change, negative = inhibition"
1,CCCN[C@H]1CCc2nc(N)sc2C1,inactive: 13.1%
2,COc1ccc2c(c1)OC/C(=C/c1ccc(O)c(O)c1)C2=O,inactive: 13.8%
3,C[n+]1ccc(C(c2c[nH]c3ccccc23)c2cc[n+](C)c3ccccc23)c2ccccc21,inactive: -13.5%
4,CCC(=O)N1CCN(C(=O)c2ccccc2)CC1,inactive: 19.9% [at 75.8 µM]
5,CN(C)Cc1ccccc1-c1nccc(N(C)C)n1,inactive: 26%
6,CC(=O)c1ccc(S(=O)(=O)NC(=O)NC2CCCCC2)cc1,inactive
7,CN(Cc1ccco1)c1ncnc2ccc(-c3cccc(C#N)c3)cc12,inactive: 1.15%
8,COCCn1c(=O)c(-c2cccs2)nc2cnc(OC)nc21,inactive: 3.61%
9,CN(CCO)CC(O)Cn1cnc2c1c(=O)n(C)c(=O)n2C (centres undefined) (tested in a mixture with another compound),inactive: -0.556%
10,c1ccc(-c2cn(CC3CCCCC3)nn2)cc1,inactive: 9.63%
11,Oc1ccc(-c2cnccn2)cc1CN1CCN(C2CCCCC2)CC1,inactive: 23%
12,Cc1cnc(CNc2cc(-c3ccc(N(C)C)cc3)ncn2)cn1,inactive: 23.4%
13,CC(=O)Nc1ccc(-c2nc3ccc(Cl)cc3[nH]2)cc1,inactive: 7.35%
14,CN[C@H](CC(C)C)C(=O)N[C@H]1C(=O)N[C@@H](CC(N)=O)C(=O)N[C@H]2C(=O)N[C@H]3C(=O)N[C@H](C(=O)N[C@@H](C(=O)O)c4cc(O)cc(O)c4-c4cc3ccc4O)[C@H](O)c3ccc(c(Cl)c3)Oc3cc2cc(c3O[C@@H]2O[C@H](CO)[C@@H](O)[C@H](O)[C@H]2O[C@H]2C[C@](C)(N)C(O)[C@H](C)O2)Oc2ccc(cc2Cl)[C@H]1O (some centres undefined),inactive
15,CCCCC[C@H](O)/C=C/[C@@H]1[C@@H](C/C=C\CCCC(=O)O)[C@@H](O)C[C@H]1O,inactive
16,CCSC(=N)N,inactive
17,CCC(N)(C(=O)O)c1ccc(C(=O)O)cc1 (centres undefined),inactive: 7.58%
18,CNc1ncnc2c1ncn2[C@H]1C[C@H](OP(=O)(O)O)[C@@H](COP(=O)(O)O)O1,inactive: -9.79% [at 75.8 µM]
19,COc1ncc2nc(CCc3ccccc3)c(=O)n(CCC#N)c2n1,inactive: 7.32%
20,CC(COc1ccccc1)N(CCCl)Cc1ccccc1 (centres undefined),inactive
21,Nc1ncn([C@@H]2O[C@H](CO)[C@@H](O)[C@H]2O)c(=O)n1,inactive
22,CCCNC(C)C(=O)Nc1ccccc1C (centres undefined),inactive
23,COc1ccc(CN(CCN(C)C)c2ccccn2)cc1,inactive
24,COc1cc(/C=C/C(=O)N2CCN(CC(=O)N3CCCC3)CC2)cc(OC)c1OC,inactive: 2.5%
25,CCCCCCCCCCCCCCCCCCOP(=O)([O-])OC1CC[N+](C)(C)CC1,inactive: 21.7% [at 75.8 µM]

row,SMILES,"activity change, negative = inhibition"
1,Nc1nc(Cl)nc2c1ncn2[C@@H]1O[C@H](COP(=O)(O)OP(=O)(O)OP(=O)(O)O)[C@@H](O)[C@H]1O,inactive: -3.27% [at 75.8 µM]
2,CC(=O)Oc1cccc2c1C(=O)c1c(OC(C)=O)cc(C(=O)O)cc1C2=O,inactive: -15.6%
3,C#C[C@]1(O)CC[C@@H]2[C@H]3CCC4=CC(=O)CC[C@H]4[C@H]3C(=C)C[C@@]21CC,inactive: 16%
4,Cc1ncc(CSSCc2cnc(C)c(O)c2CO)c(CO)c1O,inactive: 26.2%
5,N#Cc1cccc(-c2cncnc2NCc2ccccc2)c1,inactive: -0.561%
6,C[C@H](CCC(=O)O)[C@H]1CC[C@H]2[C@H]3C(C[C@H](O)[C@]12C)[C@@]1(C)CC[C@@H](O)C[C@H]1C[C@H]3O (some centres undefined),inactive: 2.13%
7,C=C[C@@H]1c2ccccc2N(S(=O)(=O)c2ccc(C)cc2)[C@H](c2ccc(C(F)(F)F)cc2)C1(C#N)C#N,inactive: -1.82%
8,CCC1(C2CCN(Cc3cccc(Cl)c3)CC2)NC(=O)N(CC2COc3ccccc3O2)C1=O (centres undefined),inactive: -16.4%
9,NCCn1c(=O)c(CCc2ccccc2)nc2cncnc21,inactive: -4.9%
10,COc1ccccc1CN1CCCC2(CCN(C(=O)c3cnccn3)CC2)C1,inactive: 26.7%
11,O=C(NC1CCC(=O)N(CCSc2ccccc2)CC1)OCc1ccccc1 (centres undefined),inactive: -3.99%
12,CN1CCN(c2ncc3nc(-c4ccc(Cl)cc4)c(=O)n(Cc4ccc(F)cc4)c3n2)CC1,inactive: 1.27%
13,CCCCC(C)(O)C/C=C/[C@H]1[C@H](O)CC(=O)[C@@H]1CCCCCCC(=O)OC (some centres undefined),inactive: 20.4%
14,CCC1(O)CC2CN(CCc3c([nH]c4ccccc34)[C@@](C(=O)OC)(c3cc4c(cc3OC)N(C)C3[C@]45CCN4CC=C[C@@](CC)([C@@H](OC(C)=O)[C@]3(O)C(=O)OC)[C@H]45)C2)C1 (some centres undefined),inactive: -3.13% [at 75.8 µM]
15,Cc1ccc2cc(CNCc3cccc4ccccc34)c(N3CCC(O)CC3)nc2c1,inactive: 6.71%
16,CCCCC/C=C\C\C=C/C=C/C=C/[C@@H](SCC(NC(C)=O)C(=O)O)[C@@H](O)CCCC(=O)O (some centres undefined),inactive: 18.2% [at 1.57 µM]
17,NC(C(=O)O)C(O)C(=O)O (centres undefined),inactive: 12.2%
18,Cc1csc(C)[n+]1CCC1CCCCC1,inactive: 8.71%
19,O=C1C2=C(S[C@@H]3O[C@H](CO)[C@@H](O)[C@H](O)[C@H]3O2)C(=O)c2ccccc21,inactive: 3.85%
20,CN(C)c1nc(-c2cccnc2)nc2ccccc12,inactive: -15%
21,O=C(O)c1cc(O)c2c(c1)[O][Bi][O]2,inactive: 8.54%
22,O=C(c1cccc(F)c1)N1CCC2(CC1)CN(c1ncccn1)C2,inactive: 6.06%
23,COC(=O)C[C@](O)(CCCC(C)(C)O)C(=O)O[C@@H]1C(OC)=CC23CCCN2CCc2cc4c(cc2[C@H]13)OCO4 (some centres undefined),inactive: 23.6%
24,O=c1oc(Cl)c(Cl)c2ccccc12,inactive: 6.94% [at 75.8 µM]
25,c1ccc(CNc2ccnc(-c3cccnc3)n2)cc1,inactive: -3.66%

row,SMILES,"activity change, negative = inhibition"
1,O=C(NCc1ccccn1)c1cnn(-c2ncc3c(n2)-c2ccccc2CC3)c1C1CC1,inactive: 10.3%
2,CC1=C(\C=C/C(C)=C/C=C\C(C)=C\C(=O)O)C(C)(C)CCC1,inactive
3,Cc1cc(-c2ccnc(-n3ncc(C(=O)NCC4CCCN(C)C4)c3C3CC3)n2)c(C)s1 (centres undefined),inactive: 2.46%
4,N[C@H]1C(O)O[C@H](CO)[C@@H](O)[C@@H]1O (some centres undefined),inactive: 20.1%
5,CN1C2CC(OC(=O)[C@H](CO)c3ccccc3)CC1C1OC12 (some centres undefined),inactive: -0.794% [at 75.8 µM]
6,COCC(=O)N1CCC2(CCN(Cc3ccncc3)CC2)CC1,inactive: 12.9%
7,O=S1(=O)[C@H]2C[C@@H]3C=C[C@@]2(CN1Cc1cccc(F)c1)O3,inactive: 15.7%
8,COc1cccc(-c2ccc3ncnc(NCCN4CCOCC4)c3c2)c1,inactive: 4.01%
9,CN1CCN(c2ncc3nc(CCc4ccccc4)c(=O)n(Cc4ccc(F)cc4)c3n2)CC1,inactive: 9.68%
10,C=C1C[C@H]2[C@@H]3C=C(C)C4=CC(=O)CC[C@]4(C)[C@H]3CC[C@]2(C)[C@@]1(OC(C)=O)C(C)=O,inactive: 14%
11,C[C@H](N)CCP(=O)(O)O,inactive: 32%
12,Cc1ccc(CNc2nc(CN3CCSCC3)nc3ccccc23)o1,inactive: 11.3%
13,COCCN1CCN(C(=O)c2cnn(-c3nccc(-c4ccco4)n3)c2C(C)C)CC1,inactive: 15.6%
14,CCCCN1CC[C@H]2C=CC[C@@H](C(=O)Nc3nccs3)[C@H]2C1=O,inactive: 9.75%
15,Nc1ccn([C@H]2CS[C@@H](CO)O2)c(=O)n1,inactive: 14.3%
16,Cc1nc2cc(NC(=O)C3CC34CCN(Cc3ccc(O)c(Cl)c3)CC4)ccc2s1 (centres undefined),inactive: 4.03%
17,COc1ncc2nc(-c3ccccc3)c(=O)n(C)c2n1,inactive: 7.29%
18,COc1ccccc1CNc1nc(-c2cccc(C#N)c2)nc2ccccc12,inactive: -19.8%
19,CC(C)C[C@@H](C=O)NC(=O)[C@H](CC(C)C)NC(=O)[C@H](CC(C)C)NC(=O)OCc1ccccc1 (Cbz-Leu-Leu-Leu-aldehyde),inactive: 16.3%
20,COc1cc(OC)c(/C=C/c2ccccn2)c(OC)c1,inactive: 23.8%
21,COc1ccc(C(C)N(C)Cc2nc(N3CCN(C(=O)c4ccco4)CC3)c3ccccc3n2)cc1 (centres undefined),inactive: -1.89%
22,NCCCCCCCCCCN,inactive: -4.09% [at 75.8 µM]
23,Cc1ccnn1CC(=O)N1CCOc2c(cc(-c3csc4ccccc34)cc2OC2CCOC2)C1 (centres undefined),inactive: 5.15%
24,COc1ccccc1C(=O)N1CCOc2ccc(CN3CCN(Cc4ccccn4)CC3)cc2C1,inactive: 18.4%
